Experimental data: ChEMBL document CHEMBL1201862, “PubChem BioAssay data set” (2004)
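Each compound was tested at five concentrations against cells in 96-well plates for 48 hours. Abbreviation: GI50, concentration required for 50% inhibition of growth.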 Activity calls are given as the source filed them. Rule as the data show it: active = GI50 up to about 1.1 µM and inactive = higher.

How the values were obtained:
Experiment in all cases: NCI tumour cell line growth inhibition, 48 h
NCI-H460 = test system: NCI-H460
MDA-MB-435 = test system: MDA-MB-435
MCF7 = test system: MCF7
SNB-75 = test system: SNB-75
UACC-62 = test system: UACC-62
HL-60 = test system: HL-60
SN12C = test system: SN12C
Hs-578T = test system: Hs-578T
SK-MEL-28 = test system: SK-MEL-28
LOX IMVI = test system: LOX IMVI
CCRF-CEM = test system: CCRF-CEM
SF-295 = test system: SF-295
HOP-92 = test system: HOP-92
BT-549 = test system: BT-549
COLO 205 = test system: COLO 205
NCI-H226 = test system: NCI-H226
SF-268 = test system: SF-268
SW-620 = test system: SW-620
HCT-116 = test system: HCT-116
NCI-H23 = test system: NCI-H23
OVCAR-5 = test system: OVCAR-5
KM12 = test system: KM12
A549 = test system: A549
UACC-257 = test system: UACC-257
SK-MEL-2 = test system: SK-MEL-2
MOLT-4 = test system: MOLT-4
OVCAR-8 = test system: OVCAR-8
SF-539 = test system: SF-539
HCT-15 = test system: HCT-15
IGROV-1 = test system: IGROV-1
CAKI-1 = test system: CAKI-1
EKVX = test system: EKVX
MDA-N = test system: MDA-N
SK-MEL-5 = test system: SK-MEL-5
U-251 = test system: U-251
NCI-H522 = test system: NCI-H522
RPMI-8226 = test system: RPMI-8226
SNB-19 = test system: SNB-19
MDA-MB-231 = test system: MDA-MB-231
HOP-62 = test system: HOP-62
TK-10 = test system: TK-10
K562 = test system: K562
Malme-3M = test system: Malme-3M
OVCAR-3 = test system: OVCAR-3
OVCAR-4 = test system: OVCAR-4
HT-29 = test system: HT-29
ACHN = test system: ACHN
M14 = test system: M14
PC-3 = test system: PC-3
DU-145 = test system: DU-145
RXF 393 = test system: RXF 393
A498 = test system: A498
HCC 2998 = test system: HCC 2998
SK-OV-3 = test system: SK-OV-3

What does the source list for `O=C(/C=C/c1ccccc1)Nc1ccccc1Cl` [N-(2-CHLOROPHENYL)CINNAMAMIDE]?
GI50 (NCI-H460): inactive: > 100 µM; GI50 (MDA-MB-435): inactive: > 100 µM; GI50 (MCF7): inactive: 4.11 µM; GI50 (SNB-75): inactive: 35.8 µM; GI50 (UACC-62): inactive: > 100 µM; GI50 (HL-60): inactive: 8.04 µM; GI50 (SN12C): inactive: > 100 µM; GI50 (Hs-578T): inactive: 16.5 µM; GI50 (SK-MEL-28): inactive: > 100 µM; GI50 (LOX IMVI): inactive: > 100 µM; GI50 (CCRF-CEM): inactive: > 100 µM; GI50 (SF-295): inactive: 42.1 µM; GI50 (HOP-92): inactive: 23.7 µM; GI50 (BT-549): inactive: > 100 µM; GI50 (COLO 205): inactive: > 100 µM; GI50 (NCI-H226): inactive: > 100 µM; GI50 (SF-268): inactive: > 100 µM; GI50 (SW-620): inactive: > 100 µM; GI50 (HCT-116): inactive: > 100 µM; GI50 (NCI-H23): inactive: > 100 µM; GI50 (OVCAR-5): inactive: > 100 µM; GI50 (KM12): inactive: 70.8 µM; GI50 (A549): inactive: > 100 µM; GI50 (UACC-257): inactive: > 100 µM; GI50 (SK-MEL-2): inactive: > 100 µM; GI50 (MOLT-4): inactive: 33.7 µM; GI50 (OVCAR-8): inactive: 83.4 µM; GI50 (SF-539): inactive: 48.4 µM; GI50 (HCT-15): > 100 µM; GI50 (IGROV-1): inactive: 41.1 µM; GI50 (CAKI-1): inactive: > 100 µM; GI50 (EKVX): inactive: 56.4 µM; GI50 (MDA-N): inactive: > 100 µM; GI50 (SK-MEL-5): inactive: 95.7 µM; GI50 (U-251): inactive: 59.8 µM; GI50 (NCI-H522): inactive: 8.24 µM; GI50 (RPMI-8226): inactive: 27.5 µM; GI50 (SNB-19): inactive: > 100 µM; GI50 (MDA-MB-231): inactive: 35.9 µM; GI50 (HOP-62): inactive: 35.1 µM; GI50 (TK-10): inactive: > 100 µM; GI50 (K562): inactive: 94.8 µM; GI50 (Malme-3M): inactive: > 100 µM; GI50 (OVCAR-3): inactive: 86.3 µM; GI50 (OVCAR-4): inactive: 44.9 µM; GI50 (HT-29): inactive: > 100 µM; GI50 (ACHN): inactive: 72.4 µM; GI50 (M14): inactive: > 100 µM; GI50 (PC-3): inactive: 97.1 µM; GI50 (DU-145): inactive: 94.8 µM; GI50 (RXF 393): inactive: 48 µM; GI50 (A498): inactive: > 100 µM; GI50 (HCC 2998): inactive: 36.6 µM; GI50 (SK-OV-3): inactive: 46.6 µM
